The source of these data is ChEMBL document CHEMBL5606458, “ASAP - ZIKV NS2B-NS3 protease fluorescence single point” (2024).

In this assay the target is Nonstructural protein 3 (Zika virus) (UniProt A0A024AXB9).
[1] abbreviates: PRVABC59, Concentration 50.0 uM, Number of replicates 1.0.
Where [2] appears, read: PRVABC59, Concentration 15.0 uM, Number of replicates 1.0.
[3] abbreviates: PRVABC59, Concentration 10.0 uM, Number of replicates 1.0.

The campaign covered roughly 2,700 compounds. About 160 (5.9%) showed an effect of 50% or more. The list shows a part of the results.

UniProt A0A024AXB9, sequence (A0A024AXB9 as listed by the source): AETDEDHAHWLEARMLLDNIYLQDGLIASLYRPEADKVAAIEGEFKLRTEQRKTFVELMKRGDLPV

As for `O=Cc1ccc(N2CCC(C(=O)NC[C@H]3COc4ccccc4O3)CC2)cc1`, the inhibition under setting [1] was determined as 27.6%.

Turning to `O=C(c1cc(Cl)ccc1NS(=O)(=O)c1ccc(Oc2ccccc2Cl)cc1)N1CCN(CC2CCCCC2)CC1`, under setting [2], the inhibition worked out at 23.1%.

With `O=Cc1ccc(N2CCC(C(=O)NCc3ccc4ccccc4n3)CC2)cc1`, the inhibition under setting [3] came out at 0.156%.

On to `COc1ccc(-c2ccccc2C(=O)Nc2cnn(C)c2)cn1`, for which the inhibition is -6.26% (PRVABC59, Concentration 49.5 uM, Number of replicates 2.0, Standard deviation 1.8092283251330816 %); -6.53% (PRVABC59, Concentration 99.01 uM, Number of replicates 2.0, Standard deviation 2.476091272312699 %); -5.53% (PRVABC59, Concentration 198.0 uM, Number of replicates 2.0, Standard deviation 0.8234310715522508 %).

Consider `O=C(CCNC(=O)c1cc(Cl)ccc1NS(=O)(=O)c1ccc(Oc2ccccc2Cl)cc1)NC1CCCCC1`, for which the inhibition under setting [2] came out at 30.5%.

Consider `C=CCN(Cc1ccc(F)cc1)C(=O)c1cc(Cl)ccc1NS(=O)(=O)c1ccc(Oc2ccccc2Cl)cc1`, for which the inhibition under setting [2] was found to be 36.5%.

As for `CC(C)Cn1cccc(C(=O)NC2CCNCC2)c1=O`, the inhibition by setting is: (PRVABC59, Concentration 49.5 uM, Number of replicates 2.0, Standard deviation 4.594544281474448 %) -7.66%; (PRVABC59, Concentration 99.01 uM, Number of replicates 2.0, Standard deviation 4.775385618841476 %) -9.55%.

On to `O=C(NCc1nnc(-c2ccccc2)o1)c1cc(Cl)ccc1NS(=O)(=O)c1ccc(Oc2ccccc2Cl)cc1`, for which the inhibition under setting [2] came out at 54.2%.

As to `O=Cc1ccc(N2CCC(C(=O)Nc3ccccc3Cc3ccccc3)CC2)cc1`, the inhibition under setting [1] was determined as 26.1%.

As to `CC(C)C[C@@H](NC(=O)OCc1ccccc1)C(=O)Nc1cccc(CN)c1`, the inhibition reads like this: (PRVABC59, Concentration 49.5 uM, Number of replicates 2.0, Standard deviation 4.877475611912747 %) 4.28%; (PRVABC59, Concentration 99.01 uM, Number of replicates 2.0, Standard deviation 0.6723794638875112 %) 6.03%; (PRVABC59, Concentration 198.0 uM, Number of replicates 2.0, Standard deviation 0.5215480313593926 %) 12.7%.

For `O=C(c1cc(Cl)ccc1NS(=O)(=O)c1ccc(Oc2ccccc2Cl)cc1)N1CCC(Oc2ncccn2)CC1`, the inhibition under setting [2] turned out to be 6.88%.

For the compound `C[C@H](NC(=O)C1CCN(c2ccc(C=O)cc2)CC1)c1ccc(N2CCOCC2)cc1`, under setting [1], the inhibition turned out to be 26.2%.

`O=C(N[C@@H](CO)Cc1ccccc1)c1cc(Cl)ccc1NS(=O)(=O)c1ccc(Oc2ccccc2Cl)cc1`: under setting [2], the inhibition worked out at 33.2%.

On to `CN(Cc1nccn1Cc1ccccc1)C(=O)C1CCN(c2ccc(C=O)cc2)CC1`, for which the inhibition under setting [1] came to 21.1%.

With `CN(Cc1nccn1Cc1ccccc1)C(=O)c1cc(Cl)ccc1NS(=O)(=O)c1ccc(Oc2ccccc2Cl)cc1`, the inhibition under setting [2] was 5.33%.

Regarding `O=Cc1ccc(N2CCC(C(=O)N3CCNC(=O)[C@@H]3c3ccccc3)CC2)cc1`, the inhibition under setting [1] amounted to 16.7%.

In the case of `O=C(NCCCn1nccc1C1CC1)c1cc(Cl)ccc1NS(=O)(=O)c1ccc(Oc2ccccc2Cl)cc1`, the inhibition under setting [2] is 25.6%.

`C[C@@H](CC(C)(C)c1ccccc1)NC(=O)c1cc(Cl)ccc1NS(=O)(=O)c1ccc(Oc2ccccc2Cl)cc1`: the inhibition under setting [2] came to 18.2%.

As for `O=Cc1ccc(N2CCC(C(=O)Nc3ccc(F)c(F)c3Br)CC2)cc1`, the inhibition under setting [1] was 23.2%.

As to `N#Cc1ccc(N2CCN(C(=O)c3cc(Cl)ccc3NS(=O)(=O)c3ccc(Oc4ccccc4Cl)cc3)CC2)nc1`, the inhibition under setting [2] amounted to 7.42%.

With `O=C(c1cc(Cl)ccc1NS(=O)(=O)c1ccc(Oc2ccccc2Cl)cc1)N1CCN(C(=O)[C@H]2COc3ccccc3O2)CC1`, the inhibition under setting [2] was 19.2%.

Consider `O=Cc1ccc(N2CCC(C(=O)N3CCC[C@H](C(=O)c4ccc(F)cc4)C3)CC2)cc1`, for which the inhibition under setting [1] worked out at 23.6%.

For the compound `CSc1ccc(CNC(=O)c2cc(Cl)ccc2NS(=O)(=O)c2ccc(Oc3ccccc3Cl)cc2)cc1`, the inhibition under setting [2] amounted to 25.6%.

For the compound `Cc1cc(CO)c2cccc(Cc3cccc(C(=O)N[C@@H](CCC(N)=O)C(=O)O)c3)c2n1`, the inhibition was found to be 14.4% (PRVABC59, Concentration 49.95 uM, Number of replicates 2.0, Standard deviation 1.9977585963676485 %) and 36% (PRVABC59, Concentration 99.9 uM, Number of replicates 2.0, Standard deviation 0.9280938346971718 %).

Regarding `O=C1NC(=O)C2(CCN(C(=O)c3cc(Cl)ccc3NS(=O)(=O)c3ccc(Oc4ccccc4Cl)cc3)CC2)N1`, under setting [2], the inhibition was -1.11%.

On to `O=C(Nc1ncccc1C(F)(F)F)c1cc(Cl)ccc1NS(=O)(=O)c1ccc(Oc2ccccc2Cl)cc1`, for which, under setting [2], the inhibition came out at 25.1%.

With `Cc1c(C(=O)NCc2nnc([C@H]3CCCO3)[nH]2)ccc(O)c1NC(=O)c1ccncc1F`, the inhibition is, setting by setting: (PRVABC59, Concentration 49.5 uM, Number of replicates 2.0, Standard deviation 2.746247007883526 %) -0.923%; (PRVABC59, Concentration 99.01 uM, Number of replicates 2.0, Standard deviation 2.0182325238498766 %) 0.321%; (PRVABC59, Concentration 198.0 uM, Number of replicates 2.0, Standard deviation 2.8783776729931185 %) 1.74%.

As for `CCN(Cc1cnn(CC)c1)C(=O)C1CCN(c2ccc(C=O)cc2)CC1`, the inhibition under setting [3] turned out to be 20.1%.

In the case of `CNC(=O)CC[C@H]1CCCN(C(=O)c2cc(Cl)ccc2NS(=O)(=O)c2ccc(Oc3ccccc3Cl)cc2)C1`, the inhibition under setting [2] was determined as 0.891%.

With `CCOC(=O)c1cc(CNCc2nnc3ccccn23)[nH]n1`, the inhibition runs as follows: (PRVABC59, Concentration 49.5 uM, Number of replicates 2.0, Standard deviation 0.8643145261321823 %) 3.76%; (PRVABC59, Concentration 99.01 uM, Number of replicates 2.0, Standard deviation 0.8811301071636647 %) 6.15%; (PRVABC59, Concentration 198.0 uM, Number of replicates 2.0, Standard deviation 1.1115020837259069 %) 10.5%.

For the compound `O=Cc1ccc(N2CCC(C(=O)N3CC(OCc4ccccc4)C3)CC2)cc1`, the inhibition under setting [1] came out at 25.3%.

On to `O=C(O)[C@H](c1c[nH]c2ccccc12)N1CCC(c2cnc3ccc[nH]c2-3)CC1`, for which the inhibition amounted to 1.83% (PRVABC59, Concentration 49.5 uM, Number of replicates 2.0, Standard deviation 2.240624574165748 %); 6.77% (PRVABC59, Concentration 99.01 uM, Number of replicates 2.0, Standard deviation 0.08733636230948652 %); 15% (PRVABC59, Concentration 198.0 uM, Number of replicates 2.0, Standard deviation 0.707723811048747 %).

On to `O=Cc1ccc(N2CCC(C(=O)N3CCN(c4nccs4)CC3)CC2)cc1`, for which, under setting [1], the inhibition was 23.4%.

On to `O=C(NCc1ccccc1-c1ccccc1)c1cc(Cl)ccc1NS(=O)(=O)c1ccc(Oc2ccccc2Cl)cc1`, for which the inhibition under setting [2] amounted to 13.1%.

For the compound `Cc1cc(CO)c2cccc(Cc3ccccc3NC(=O)CCC3CCNCC3)c2n1`, the inhibition came to 4.96% (PRVABC59, Concentration 49.95 uM, Number of replicates 2.0, Standard deviation 0.020358613704702253 %) and 26.8% (PRVABC59, Concentration 99.9 uM, Number of replicates 2.0, Standard deviation 1.9188023762412802 %).

For the compound `COc1cc(CC(=O)NCc2cccnc2)nc(N2CCNCC2)n1`, the inhibition is, setting by setting: (PRVABC59, Concentration 49.5 uM, Number of replicates 2.0, Standard deviation 0.24894019214220156 %) -2.17%; (PRVABC59, Concentration 99.01 uM, Number of replicates 2.0, Standard deviation 0.7234823701930005 %) 0.029%; (PRVABC59, Concentration 198.0 uM, Number of replicates 2.0, Standard deviation 0.18151872151629458 %) 3.81%.

Take `CNC(=O)C1CN(S(=O)(=O)c2ccc(Oc3ccccc3Cl)cc2)C1`: the inhibition reads like this: (PRVABC59, Concentration 49.5 uM, Number of replicates 2.0, Standard deviation 2.02275079245079 %) -0.647%; (PRVABC59, Concentration 99.01 uM, Number of replicates 2.0, Standard deviation 1.788137114907563 %) 1.9%; (PRVABC59, Concentration 198.0 uM, Number of replicates 2.0, Standard deviation 2.606114974318383 %) 6.78%.

For `COc1ccccc1OCCCN(C)C(=O)C1CCN(c2ccc(C=O)cc2)CC1`, the inhibition under setting [1] came to 22.6%.

With `O=C(NCc1ccccc1-n1cccn1)c1cc(Cl)ccc1NS(=O)(=O)c1ccc(Oc2ccccc2Cl)cc1`, under setting [2], the inhibition is 20.6%.

As to `CCc1cccc2[nH]c(C(=O)N3C[C@H](n4cc(CO)nn4)CCC3(C)C)cc12`, the inhibition (PRVABC59, Concentration 49.5 uM, Number of replicates 2.0, Standard deviation 1.345657751466366 %) is 1.61%; the inhibition (PRVABC59, Concentration 99.01 uM, Number of replicates 2.0, Standard deviation 0.921351350459793 %) worked out at 4.33%; the inhibition (PRVABC59, Concentration 198.0 uM, Number of replicates 2.0, Standard deviation 1.6164058188461652 %) turned out to be 5.38%.

For `O=C(CN1CCC(NC(=O)c2cc(Cl)ccc2NS(=O)(=O)c2ccc(Oc3ccccc3Cl)cc2)CC1)NC1CC1`, under setting [2], the inhibition was -1.61%.

For the compound `C[C@H]1CCC[C@H](C)N1CCNC(=O)c1cc(Cl)ccc1NS(=O)(=O)c1ccc(Oc2ccccc2Cl)cc1`, the inhibition under setting [2] was determined as 8.63%.

By inhibition is commonly meant the change of the read-out against control, counted positive when it falls.
